Reference: PMC4336329 (PLoS ONE, 2015)
Screen size: about 310,000 compounds; about 2,200 (0.71%) showed an effect of 50% or more. The effect is printed as a negative number. Some of the results follow.

Target: human ether-à-go-go-related gene (hERG) potassium channel (human, UniProt Q12809)
Assay: primary screen, population patch clamp on CHO cells stably expressing hERG

Sequence of human ether-à-go-go-related gene (hERG) potassium channel (Q12809 whole entry, looked up): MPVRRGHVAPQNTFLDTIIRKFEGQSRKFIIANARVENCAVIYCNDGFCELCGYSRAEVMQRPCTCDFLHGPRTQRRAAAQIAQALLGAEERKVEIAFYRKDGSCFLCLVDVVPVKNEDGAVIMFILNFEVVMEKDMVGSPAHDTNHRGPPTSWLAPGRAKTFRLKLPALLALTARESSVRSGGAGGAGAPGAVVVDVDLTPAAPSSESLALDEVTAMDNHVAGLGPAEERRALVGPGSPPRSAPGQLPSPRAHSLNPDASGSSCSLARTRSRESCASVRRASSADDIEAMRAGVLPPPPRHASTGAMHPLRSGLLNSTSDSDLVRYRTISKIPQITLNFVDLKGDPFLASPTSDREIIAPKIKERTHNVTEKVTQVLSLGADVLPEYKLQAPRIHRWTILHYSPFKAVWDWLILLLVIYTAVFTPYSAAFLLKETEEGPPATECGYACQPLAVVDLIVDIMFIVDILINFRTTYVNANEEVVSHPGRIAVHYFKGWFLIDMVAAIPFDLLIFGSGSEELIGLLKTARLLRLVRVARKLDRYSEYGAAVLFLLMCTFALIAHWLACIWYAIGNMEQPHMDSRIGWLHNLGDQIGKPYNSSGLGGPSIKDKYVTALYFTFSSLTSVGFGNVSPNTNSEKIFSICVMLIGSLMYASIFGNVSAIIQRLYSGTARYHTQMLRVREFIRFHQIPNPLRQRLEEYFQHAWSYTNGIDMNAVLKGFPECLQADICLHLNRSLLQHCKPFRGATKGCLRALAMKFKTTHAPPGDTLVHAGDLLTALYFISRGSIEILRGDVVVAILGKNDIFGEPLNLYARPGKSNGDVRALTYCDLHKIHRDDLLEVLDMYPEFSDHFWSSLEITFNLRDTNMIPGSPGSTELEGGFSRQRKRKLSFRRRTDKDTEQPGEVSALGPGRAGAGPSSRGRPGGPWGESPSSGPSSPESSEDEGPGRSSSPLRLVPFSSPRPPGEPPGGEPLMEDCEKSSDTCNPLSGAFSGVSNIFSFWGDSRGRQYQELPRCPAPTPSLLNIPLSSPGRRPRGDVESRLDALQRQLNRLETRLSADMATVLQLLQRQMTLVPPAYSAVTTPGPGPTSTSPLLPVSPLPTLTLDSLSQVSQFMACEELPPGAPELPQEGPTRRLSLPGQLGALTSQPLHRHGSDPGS

SMILES	hERG current change (%, negative = inhibition) at 1uM [%]
O=S(=O)(c1ccccc1)N1N=C(c2cccs2)CC1c1ccc(Br)cc1 (stereo not drawn)	14.7
O=C1NC(Cc2c[nH]c3ccccc23)C(=O)N1CCOc1ccccc1 (stereo not drawn)	-2.02
Cc1ccc(C(=O)c2ccccc2C(=O)OCC(=O)N2CC(C)CC(C)C2)cc1 (stereo not drawn)	2.11
COc1cccc(-c2ccc(SCc3ccccn3)nn2)c1	6.98
CCOC(=O)C(NC(=O)N1CCCCC1)(c1ccccc1)C(F)(F)F (stereo not drawn)	12.2
COc1ccc(CN(C(=O)c2ccc(CN3CCOCC3)o2)C(C(=O)NCC2CCCO2)c2ccc(F)cc2)cc1 (stereo not drawn)	4.47
Cc1ccc2nc(N(CCCN(C)C)C(=O)c3ccc(S(=O)(=O)N4CCOCC4)cc3)sc2c1.Cl	-13
NNC(=O)[C@@H]1C[C@@H]1c1ccccc1	2.06
COC(=O)c1ccc(C(=O)NC2CCCc3c2cnn3-c2ccccc2F)nc1 (stereo not drawn)	9.02
O=C(c1cc(COc2ccc(F)cc2Cl)on1)N1CCCC(OCc2cccnc2)C1 (stereo not drawn)	-4.37
CN(C(=O)c1cccs1)c1ccc(OCC(=O)N2CCC(C(N)=O)CC2)cc1	25.6
C[C@H](NC(N)=O)C(=O)Nc1ccc(OCc2ccccc2)cc1	10.7
COc1cc(NC(=O)C2=CC(c3ccco3)=NS(=O)(=O)N2C)cc(OC)c1OC	11.7
C#CCNC(=O)C1CCN(c2cc(C)nc(-c3ccccc3)n2)CC1	-8.78
CCOC(=O)CSc1cc(=O)n(C)c2cc(Cl)ccc12	14.1
CCOC(=O)C1CCN(S(=O)(=O)c2cc3c4c(c2)C(C)C(=O)N4CCC3)CC1 (stereo not drawn)	10.3
O=C(COc1ccccc1F)N1CCCc2ccccc21	16.2
Cc1ccc(-c2nn(CC(=O)NCC3CCCO3)c(=O)c3ccccc23)cc1 (stereo not drawn)	-7.7
C/C(=N\Nc1cc(N2CCOCC2)ncn1)c1cccc([N+](=O)[O-])c1	10.3
CCOC(=O)CC1=NN(c2ccccc2)C(=O)C1	16.1
CC(C)OC(=O)c1cccc(C(=O)Nc2cccc(NC(=O)c3cccc(C(=O)OC(C)C)n3)n2)n1	17.4
Cc1noc(C)c1S(=O)(=O)N(CC(=O)Nc1ccc2c(c1)OCCO2)c1ccc(C(C)C)cc1	6.67

SMILES	hERG current change (%, negative = inhibition) at 1uM [%]
O=C(Cn1ccc(NC(=O)OCc2ccccc2)nc1=O)NCC1CCCO1 (stereo not drawn)	15.1
CCOC(=O)C1=C(C)N(CCCC(=O)O)C(=O)NC1c1cccs1 (stereo not drawn)	21.3
CC(=O)Nc1ccccc1C(F)(F)F	18.8
CC1=CC(c2ccc(Cl)cc2)n2nc(N3C(=O)CCC3=O)nc2N1.O=C(O)CCC(=O)O (stereo not drawn)	-1.91
C=CCN(CC=C)CCOc1ccccc1F.O=C(O)C(=O)O	3.05
CCc1ccc(C(=O)Nn2cnc3ccccc3c2=O)cc1	6.81
Cc1nn(C)c(Cl)c1S(=O)(=O)N1CCC(CO)(CCc2ccccc2)CC1	3.36
Cc1occc(=O)c1OC(=O)Nc1ccccc1	9.47
CC(C)NS(=O)(=O)c1cc(C(=O)O)ccc1Cl	0.113
CCc1cc(=O)oc2c3c(cc(OCC(=O)NCCCn4ccnc4)c12)OC(C)(C)CC3	-21.9
Cc1ccc(NC(=O)Cn2cc(C(=O)C3CC3)c3ccccc32)c(C)c1	15.5
O=C(NCCC1CCCCN1S(=O)(=O)c1cccs1)C(=O)Nc1cccc(F)c1 (stereo not drawn)	1.64
CCC(=O)Nc1ccc(Cl)c(NC(=S)NC(=O)c2ccco2)c1	13.1
COc1ccc(Cl)cc1NC(=O)CN1CCc2ccccc2C1	5.62
O=C(CCc1nc2ccccc2c(=O)[nH]1)NNC(=O)c1ccc(F)cc1	10.2
CCc1c(C)c(C#N)c2nc3ccccc3n2c1NCCOC	8.87
CCC(=O)OCC(=O)Nc1cc([N+](=O)[O-])ccc1OC	1.52
COc1cccc(-c2nc(-c3ccc4c(c3)-c3ccccc3S4(=O)=O)c(-c3ccccc3)[nH]2)c1OC	3.83
CCC1Oc2ccc(C)cc2N(CC(=O)NCCN2CCCCCC2)C1=O (stereo not drawn)	8.55
CCn1c(SCC(=O)Nc2nccs2)nnc1-c1ccc(S(=O)(=O)N2CCCCC2)cc1	12
O=C(NNC(=O)c1ccccc1O)c1cccc(Br)c1	16
CC1(C)CN(c2cccc(Br)c2)C1=O	12.1

SMILES	hERG current change (%, negative = inhibition) at 1uM [%]
CCc1[nH]nc(C(=O)NC2CCCc3c2cnn3-c2cc(C)cc(C)c2)c1C (stereo not drawn)	-4.06
CC1CCc2c(nc3ncnn3c2NCCN(C)C)C1.Cl (stereo not drawn)	8.51
O=C(O)c1cc(N/N=C/C=C/c2ccccc2)ccc1Cl	20.3
COc1ccc(OS(=O)(=O)c2ccc(N3C(=O)CCC3=O)cc2)cc1	20.7
COC(=O)c1ccccc1NC(=O)CN1CCN(c2ccccn2)CC1	14
COc1cc(C(=O)Nc2nc(-c3ccc(F)cc3)cs2)ccc1OCC(=O)N1CCOCC1	1.36
CCCOC(=O)C1=C(C)NC(=O)NC1c1cccc2ccccc12 (stereo not drawn)	3.77
CCN(CC)c1ccc(C(=O)N/N=C(\C)c2cccc(OC)c2)cc1	11.8
CN(c1ccccc1)c1nc(N)c([N+](=O)[O-])c(Nc2ccc(F)cc2)n1	15
S=C(Nc1cccc(Cl)c1Cl)NC1CCN(Cc2ccccc2)CC1	21.9
COC(=O)CC1(CC(=O)OC)C(=O)N(c2ccccc2)C(=O)N(c2ccccc2)C1=O	9.98
CCCCc1c(C)c(C#N)c2nc3ccccc3n2c1Nc1c(C)n(C)n(-c2ccccc2)c1=O	3.89
O=C(NCCCc1ccccc1)C1CCC(=O)N(Cc2ccc(Cl)cc2)C1 (stereo not drawn)	-6.98
COc1nccnc1NS(=O)(=O)c1ccc(N=Cc2c(C)[nH]n(-c3ccc(C)c(C)c3)c2=O)cc1	3.39
O=C(NC(Cc1c[nH]c2ccccc12)C(=O)O)c1ccccc1 (stereo not drawn)	-0.787
COc1ccc(NC(=O)c2cc(=O)c3ccccc3o2)cn1	-7.3
CCCN(c1ccc(OCC)cc1)c1ncnc2nc[nH]c12	2.12
C/C=C/c1ccc(OCCn2nnc3ccccc32)c(OC)c1	8.32
Oc1oc(C=Nc2ccc(F)cc2F)c2ccccc12	9.94
CC1(C)NC(=O)N(CC(O)CN2CCOCC2)C1=O (stereo not drawn)	-0.0262
COc1ccnc2c1c(=O)n(Cc1c(F)cccc1Cl)c(=O)n2C	-14.5
OCC1CCCN(Cc2cn(Cc3ccccc3)nc2-c2cc3ccccc3o2)C1 (stereo not drawn)	2.85

SMILES	hERG current change (%, negative = inhibition) at 1uM [%]
O=C1CN(C(=O)NCC(=O)N[C@H](C(=O)O)c2ccccc2)c2ccccc2N1	4.27
CCOC(=O)C1=C(C)NC(C)=C(C(=O)OCC)C1c1cc2ccc(C)cc2[nH]c1=O	13.7
O=C(COC(=O)CNC(=O)c1ccccc1)Nc1ccc(S(=O)(=O)N2CCCC2)cc1	6.66
Cc1ccc(S(=O)(=O)N2CCOCC2)cc1NC(=O)CSc1nc(N)cc(=O)[nH]1	8.89
C=CCN(CC=C)C(=O)c1c(OC)cccc1OC	0.554
Clc1ccccc1C1CC(c2ccccc2)Nc2ncnn21 (stereo not drawn)	2.51
C/C(=N\NC(=O)c1ccc(CSc2nncn2C)cc1)c1ccc(Cl)cc1	10.2
CCC(O)CNc1nc(SC)nc2sc3c(c12)CCN(C)C3 (stereo not drawn)	8.27
C/C(=N\NC(=O)c1c(Cl)c(C)nn1C)c1ccc(NC(=O)C2CCC2)cc1	7.97
Cc1ccnc(N2CCC(C(=O)Nc3ccc(Oc4ccccc4)cc3)CC2)n1	-0.266
CN(CC(=O)Nc1ccccc1Cl)C(=O)Cn1cc(C(F)(F)F)cc(Cl)c1=O	9.42
COc1ccc(Nc2ncc(C(=O)N3CCC(C(N)=O)CC3)c3ccccc23)cc1	11.5
CN1CCN(S(=O)(=O)c2ccc3[nH]cc(C(=O)O)c(=O)c3c2)CC1	-3.21
CCCCn1c(SCc2nnc(-c3ccccc3)o2)nc2c1c(=O)n(C)c(=O)n2C	-8.35
O=C(O)c1ccccc1C(=O)Nc1ccccc1NC(=O)c1ccccc1C(=O)O	0.983
CNC(=O)c1ccsc1NC(=O)CS(=O)(=O)c1ccccc1	5.1
CN(C)CCNCc1ccc(OC2CCCC2)cc1.Cl	0.362
CN(C)c1ccc(/C=C/c2nc3ccccc3s2)cc1	12.5
Clc1cccc(NCc2nnc(SCc3ccc(Cl)cc3Cl)o2)c1	-0.354
CC(=O)Nc1ccc2nc(NC(=O)c3cccnc3)sc2c1	-1.25
O=C(O)c1ccc(/C=C2/SC(=S)N(Cc3ccccc3)C2=O)cc1	11.5
